Test results as given in ChEMBL document CHEMBL1156829.
The full ranking holds about 5,400 compounds; the median of “IFI” is about 2, and the highest 2% start at about 22. Some of the results follow.

Assay: NOVARTIS: Inhibition Frequency Index (IFI) - the number of HTS assays where a compound showed > 50% inhibition/induction, expressed as a percentage of the number of assays in which the compound was tested.
Assay type: functional

| Compound | IFI [%] |
| --- | --- |
| CN(CC(=O)NC(C)(C)C)S(=O)(=O)c1ccccc1 | 0 |
| Cc1ccc(F)cc1NC(=O)c1cc(Cl)ccc1Nc1ccccc1 | 2.86 |
| CCN1/C(=C/C=C/C2=[N+](C)c3ccc(C)cc3C2(C)C)C=Cc2ccccc21 | 28.6 |
| O=C(Nc1ccccc1C(F)(F)F)N1CCC(N2CCCCC2)CC1 | 0 |
| CC12CN3CC(C)(CN(C1)C3c1ccccc1)C2=O (configuration not stated) | 0 |
| Brc1ccc(/C=C/c2cc[n+](Cc3ccccc3)cc2)cc1 | 10.6 |
| O=C(c1ccc([N+](=O)[O-])cc1)C1C(C(=O)c2ccc(F)cc2)C2(C(=O)Nc3ccccc32)C2C=Cc3ccccc3N12 (configuration not stated) | 14.3 |
| CC(C)C1c2[nH]c3ccccc3c2CCN1C(=O)CCl (configuration not stated) | 12 |
| CCOc1ccccc1-n1c(C(C)N(Cc2ccccc2)C(=O)Nc2ccccc2OC)nc2ccccc2c1=O (configuration not stated) | 1.89 |
| Cc1cc(C)c2cc(CN(CCN(C)C)C(=S)NCCCN(C)C)c(=O)[nH]c2c1 | 3.12 |
| Oc1ccc(-c2cncc(NCc3ccc(Cl)cc3)c2)cc1 | 0 |
| CN(C)c1ccc(N2C(N)=NC(N)=NC23CCCC3)cc1 | 0 |
| CC[C@@H]1CCC[C@H](C)CC[C@@H](O[C@@H]2O[C@@H](C)[C@@H](O)[C@@H](N)[C@H]2O)[C@H](CC)CCCNC1=O | 1.51 |
| Cc1ccc(CC(=O)Nc2ccc(I)cc2)cc1 | 0 |
| Cc1cnc(Sc2ccccn2)c([N+](=O)[O-])c1 | 0 |
| CCN1CCN(c2cc(C)c3cc(NC(=O)c4cc(OC)cc(OC)c4)ccc3n2)CC1 | 0 |
| COc1ccc2nc(C)cc(N(c3ccc(Br)cc3)S(=O)(=O)c3ccc([N+](=O)[O-])cc3)c2c1 | 4.25 |
| COc1cc2nc(NCc3ccccc3)n3nc(-c4cccnc4)nc3c2cc1OC | 0 |
| CC[n+]1c(/C=C/c2cc(Br)ccc2OC)ccc2ccccc21 | 7.44 |
| CCOC(=O)C(=O)N1c2ccc(C)cc2-c2c(ssc2=S)C1(C)C | 0 |
| COc1ccc(Cn2c(SCC(=O)Nc3ccccc3OC)nc3ccsc3c2=O)cc1 | 0 |
| N#Cc1nc(C(=O)N2CCOCC2)oc1N1CCOCC1 | 0 |
| CC(/C=C/C(=O)NO)=C\[C@@H](C)C(=O)c1ccc(N(C)C)cc1 | 22.6 |
| COc1ccc(Nc2nc(NN=Cc3cc4c(cc3Br)OCO4)nc(Nc3ccc([N+](=O)[O-])cc3)n2)cc1 | 6.49 |
| CC(C)c1ccc(NC(=O)C(Cc2cccs2)c2nnn[nH]2)cc1 (configuration not stated) | 4.72 |
| CCOC(=O)c1ccc2c(c1)[n+](CC)c(/C=C/N(C)c1ccccc1)n2CC | 7.41 |
| Cc1nc(-c2ccc[n+](C)c2)sc1C(=O)/C=C/c1ccc(Cl)cc1 | 5.71 |
